“And” between values parts separate entries of the source, which are not always exact repeats. Equal values may be shown once. Among all 16,000 compounds or so, about 40 (0.2%) were called active. Roughly 1% stayed inconclusive and do not appear here. The call rests on the fitted dose curve; in most records, active means well fitted activation curve with a large enough effect; inconclusive means small, poorly fitted or top-dose-only effect, or another doubt; inactive means no such curve, though single readings can be large or run the other way. This is one part of the list.
Molecular target: Rap guanine nucleotide exchange factor 4 (Homo sapiens) (UniProt Q8WZA2)
Sequence of UniProt Q8WZA2 (Q8WZA2 whole entry, looked up): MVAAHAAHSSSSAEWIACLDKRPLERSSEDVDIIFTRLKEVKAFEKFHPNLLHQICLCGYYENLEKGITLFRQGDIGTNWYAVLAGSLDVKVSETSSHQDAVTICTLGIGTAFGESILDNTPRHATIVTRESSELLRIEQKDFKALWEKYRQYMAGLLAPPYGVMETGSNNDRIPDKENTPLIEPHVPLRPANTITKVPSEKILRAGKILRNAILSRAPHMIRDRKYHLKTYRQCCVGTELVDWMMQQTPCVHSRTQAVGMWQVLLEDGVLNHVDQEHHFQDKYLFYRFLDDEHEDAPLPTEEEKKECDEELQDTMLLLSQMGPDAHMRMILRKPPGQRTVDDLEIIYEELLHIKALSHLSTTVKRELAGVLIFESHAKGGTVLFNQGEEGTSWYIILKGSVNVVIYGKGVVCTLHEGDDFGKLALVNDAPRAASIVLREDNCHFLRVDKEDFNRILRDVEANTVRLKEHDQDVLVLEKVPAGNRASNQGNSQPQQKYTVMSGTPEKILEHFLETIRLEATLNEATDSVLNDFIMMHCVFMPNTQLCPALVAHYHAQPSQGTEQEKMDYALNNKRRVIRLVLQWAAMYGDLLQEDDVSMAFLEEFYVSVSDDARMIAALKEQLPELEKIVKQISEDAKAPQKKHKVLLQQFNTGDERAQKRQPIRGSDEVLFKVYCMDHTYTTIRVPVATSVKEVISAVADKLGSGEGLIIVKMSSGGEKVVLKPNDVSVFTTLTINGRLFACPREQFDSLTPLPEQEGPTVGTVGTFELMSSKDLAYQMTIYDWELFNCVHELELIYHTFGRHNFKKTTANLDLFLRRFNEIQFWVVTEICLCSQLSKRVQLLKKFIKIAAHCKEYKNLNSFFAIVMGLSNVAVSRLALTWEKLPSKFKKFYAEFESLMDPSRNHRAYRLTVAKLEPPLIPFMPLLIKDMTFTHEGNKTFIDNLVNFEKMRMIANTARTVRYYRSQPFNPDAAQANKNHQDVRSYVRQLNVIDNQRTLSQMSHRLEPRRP
Experiment: Validation qHTS for agonist of cAMP-regulated guanine nucleotide exchange factor 4 (EPAC2);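 further: exchange makes BODIPY-GDP fluorescence drop when released from Rap1B; series mostly up to about 150 µM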
Settings: EPAC2 Rap1B BODIPY-GDP exchange, fluorescence; activation: stronger effect = higher value
Source text: Principle Investigator: Xiaodong Cheng Ph.D.
The University of Texas Medical Branch, […], TX
In multi-cellular eukaryotic organisms, the effects of cAMP are transduced by two ubiquitously-expressed intracellular cAMP receptors, the classic protein kinase A/cAMP-dependent protein kinase (PKA/cAPK) and the more recently discovered exchange protein directly activated by cAMP/cAMP-regulated guanine nucleotide exchange factor (EPAC/cAMP-GEF). Both PKA and EPAC are ubiquitously expressed in all tissues, and an increase in intracellular cAMP levels will lead to the activation of both PKA and EPAC. Therefore, careful dissections of the individual role and relative contribution of EPAC and PKA within the overall cAMP signaling in various model systems are critical for further elucidating the mechanism of cAMP signaling. To date no EPAC-specific antagonists and agonist, as well as isoform-specific agonists have been reported, and developing EPAC-specific pharmacological probes to determine the physiological functions that EPAC play in the overall cAMP-mediated signaling remains a major challenge within the research field. Furthermore, identified regulators of EPAC may lead to new mechanism-based therapeutic strategies specifically targeting the EPAC / cAMP-signaling components as EPAC has been implicated to play important roles in major human pathological conditions such as diabetes, heart disease, and cancer.
This qHTS will be used to screen the Molecular Libraries Small Molecule Repository (MLSMR) as a concentration-titration series using the NCGC unique quantitative screening (qHTS) platform to find activators for EPAC1. In addition, this assay will also be used as a counterscreen for the EPAC2 qHTS. This fluorescent based assay is developed and validated for EPAC1 that measures exchange using EPAC effector Rap1 complex with BODIPY-GDP, a GDP analog with a tethered fluorophores. Activators are identified by monitoring the change in fluorescence signal as the exchanged free BODIPY-GDP has a reduced fluorescence compared to Rap1-bound BODIPY-GDP. Increase in signal (activation) is the desired outcome for the EPAC1 agonist while no activity in this assay is desired for the EPAC2 agonist counterscreen.
[1] de Rooij, J., Zwartkruis, F. J., Verheijen, M. H., Cool, R. H., Nijman, S. M., Wittinghofer, A., and Bos, J.L. (1998) Nature 396, 474-477.
Briefly, three uL of reagents (100 nM EPAC2, 250 nM RAP1B-BODIPY-GDP, 50 uM GDP) were dispensed into a 1536-well Greiner black solid-bottom medium binding assay plate. Controls and test compounds (23 nL) were transferred to the plate via a Kalypsys pin tool equipped with a 1536-pin array. The plates were centrifuged at 1,000 rpm for 15 seconds followed by 5 minute incubation at room temperature. The assay plates were read at 5 minute intervals for 30 minutes in the ViewLux plate reader using 480nm excitation and 540nm emission filters. The results were normalized to the agonist positive control of 6.5 mM cAMP.
On the % scale 0 is the no-effect control and ±100 the full control effect.

activation, inactive:
CC(C)(c1ccc(O)cc1)c1ccc(O)cc1 -24.3%
CCn1c(-c2ccccc2F)nc2cc(NC(C)=O)cc(C(=O)N3CCNC(=O)C3CC(=O)OC)c21 (centres undefined) -2.82%
CCCCCCc1ccc(O)cc1O -62.2% and -49.8%
CCN1C(=O)CC(CC(=O)N2CCCCC2c2nccs2)(c2ccccc2C)C1=O (centres undefined) -19.4%
NC(Cc1ccc(O)c(O)c1)C(=O)O (centres undefined) -18.3%
Cc1cc(O)c2c(c1)O[C@@]1(C)CC[C@H]3C(C)(C)CCCC34CO[C@@H]2[C@H]41 (some centres undefined) -4.67%
NC(=O)CC[C@@H]1NC(=O)[C@H](Cc2ccccc2)NC(=O)[C@H](Cc2ccc(O)cc2)NC(=O)CCSSC[C@@H](C(=O)N2CCC[C@H]2C(=O)N[C@@H](CCCN=C(N)N)C(=O)NCC(N)=O)NC(=O)[C@H](CC(N)=O)NC1=O 0.824% and -5.97%
COc1ccccc1-c1ccnc(-n2ncc(C(=O)NCc3ccncc3)c2C)n1 -3.23%
NCC[C@H](O)C(=O)N[C@@H]1C[C@H](N)[C@@H](O[C@H]2O[C@H](CN)CC[C@H]2N)[C@H](O)[C@H]1O[C@H]1O[C@H](CO)[C@@H](O)[C@H](N)[C@H]1O -0.654%
O=Cc1ccccc1-c1cn(CN2C(=O)c3ccccc3C2=O)nn1 -2.2%
COc1ccc(NC(=O)N2CCCC3(CCN(S(=O)(=O)c4ccccc4)CC3)C2)cc1 -20.4%
COC(=O)C(CN)c1c[nH]c2ccc(OC)cc12 (centres undefined) 1.26%
CCC1(C2CCN(C(=O)c3cc(C)cc(C)c3)CC2)NC(=O)N(CCc2scnc2C)C1=O (centres undefined) -11.7%
O=C(c1ccncc1)N1CCC2(CC1)CN(c1ccccc1)C2 -2.58%
COC(=O)[C@@H]1[C@H]2C[C@H]3c4[nH]c5ccccc5c4CCN3C[C@@H]2CC[C@@H]1O -15% and -8.63%
C[C@]12C=CC(=O)C=C1CC[C@@H]1[C@@H]2[C@@H](O)C[C@@]2(C)[C@H]1CC[C@]2(O)C(=O)COC(=O)CCC(=O)O -1.2%
Cc1cnc(SCCN2CCOCC2)nc1C1CCCN(C(=O)c2cccc3c(C)c(C)[nH]c23)C1 (centres undefined) -5.56%
CCC(C)n1ncn(-c2ccc(N3CCN(c4ccc(OC[C@H]5CO[C@](Cn6cncn6)(c6ccc(Cl)cc6Cl)O5)cc4)CC3)cc2)c1=O (some centres undefined) -3.7%
COc1ccc(-n2c(=O)c(CCc3ccccc3)nc3cnc(N(C)C)nc32)cc1 -0.998%
COc1ccc(-c2nc3cnc(Nc4ccccc4)nc3n(CCC#N)c2=O)cc1 -2.2%
O=C(NCCc1ccncc1)c1cnn(-c2ncc3c(n2)-c2ccccc2CCC3)c1C1CC1 -15.1%
CC(C)=CCC/C(C)=C\COc1c2ccoc2cc2oc(=O)ccc12 3.16%
COc1cc(C(=O)Oc2ccc3c(OC)c4ccoc4nc3c2OC)cc(OC)c1OC -20.4%
COC(=O)CC1[C@@]2(C)C[C@]34OC5(C)OC6(C7CC(=O)OC(c8ccoc8)[C@]7(C)CCC6(O5)[C@]13C)C(OC(C)=O)[C@]4(OC(C)=O)C2OC(C)=O (some centres undefined) -12.5%
COc1ccc(NC(=O)N2CC[C@@]3(CCCN(C(=O)c4ccc(OC)cc4)C3)C2)cc1 -18.7%
COc1ccc2[nH]cc(CCO)c2c1 2.46%
CC/C=C\C/C=C\C/C=C\C/C=C\C/C=C\CCCCCC(=O)O 11.6%
COc1ccc(C(=O)N2CCC[C@@]3(CCN(C(=O)Nc4ccccc4)C3)C2)cc1 -6.84%
CC(C)NCC(O)COc1cccc2ccccc12 (centres undefined) -9.13% and -12.6% and -4.62%
CCC1(C2CCN(C(=O)c3ccccc3C(C)=O)CC2)NC(=O)N(CCc2scnc2C)C1=O (centres undefined) -9.73%
COc1cccc(CNc2ccc3nc(-c4ccc(N)cc4)c(OC)n3n2)c1 -10.4% and -13.4%
CC(=O)N1CCC[C@@]2(CCN(c3ccccc3)C2)C1 -20.5%
COC(=O)N1CCC[C@@]2(CCN(C(=O)Nc3cccc(F)c3)C2)C1 -3.1%
O=C(Nc1cccc(F)c1)N1CC[C@@]2(CCCN(S(=O)(=O)c3ccccc3)C2)C1 -9.33%
CC(=O)Nc1ccccc1-c1nc(CNC(=O)c2cc(C)ccc2C)c(C)o1 -3.94%
CC(=O)OC1c2c(ccc3ccc(=O)oc23)OC(C)(C)C1OC(=O)CC(C)C (centres undefined) -16.8%
O=C(CCCN1CCC(C(=O)c2ccc(F)cc2)CC1)c1ccc(F)cc1 -11.7%
Cc1ccn(CCC(=O)NCC2Cc3cc(Cl)cc(-c4ccc5[nH]ccc5c4)c3O2)n1 (centres undefined) -7.75%
CCOC(=O)C(=O)C1(C(=O)OCC)Oc2cc(OC)cc(OC)c2C(=O)C1c1ccccc1 (centres undefined) -3.98%
CC[C@@H](C)[C@@H](CO[C@@H](Cc1ccccc1)C(=O)N[C@@H](CCS(C)(=O)=O)C(=O)OC(C)C)NC[C@@H](N)CS -3.91%
COCCn1c(=O)c(-c2cccc(C#N)c2)nc2cnc(Oc3cccc(Cl)c3)nc21 -5.61%
COC(=O)c1ccc(C(=O)NCC2Cc3cccc(-c4ccc(C(=O)OC)cn4)c3O2)cc1 (centres undefined) -0.608%
CC(=O)N[C@@H]([C@@H](O)[C@H](O)[C@H](O)CO)[C@@H](O)CC(=O)C(=O)O -3.65%
COc1ccc(CN2CCC3(CC2)c2ccccc2[C@@H](NC(=O)c2ccsc2)[C@@H]3OC)cc1O 2.2%
Cc1cnc(SCc2ccccn2)nc1C1CCCN(C(=O)c2scc3c2CCCC3)C1 (centres undefined) -31.4%
Cc1occc1C(=O)Nc1cccc(-c2nc(CNC(=O)c3cc(-c4ccccc4)n[nH]3)c(C)o2)c1 14.8%
COc1cccc(Nc2ncc3nc(C)c(=O)n(-c4ccccc4)c3n2)c1 -17%
COc1ccc(C(=O)N2CCOc3ccc(CN4CCN(c5ccccn5)CC4)cc3C2)o1 -22.5%
O=S1(=O)CCOCCCN1Cc1cccc(C(F)(F)F)c1 -12.6%
CC(=O)N1CCC[C@@]2(CCN(Cc3nccs3)C2)C1 -22.7%
O=C(C[N+]1(CCc2ccccc2)CCOCC1)c1ccccc1 -0.259%
CNCC[C@H](Oc1ccccc1OC)c1ccccc1 -18.3%
Fc1ccc(C(c2ccc(F)cc2)N2CCN(C/C=C\c3ccccc3)CC2)cc1 12.9%
NC(=O)Oc1ccc(Cc2ccccc2)cc1 -14.7%
CCCCCCCCCCCCSCCOCCO -28.1%
C[C@@H](NC(=O)/C(C#N)=C/c1ccc(O)c(O)c1)c1ccccc1 -9.76% and -16%
COc1ccc(-c2nc3cnc(N4CCNCC4)nc3n(-c3ccccc3)c2=O)cc1 -16%
COc1cccc(Cn2c(=O)c(-c3ccccc3)nc3cnc(N(C)C)nc32)c1 -20.7%
O=C(c1csnn1)N1CCC2(CC1)CCN(c1ccccc1)CC2 -6.88%
Cc1cccc(CNC(=O)c2cnn(-c3ncc4c(n3)-c3ccccc3CC4)c2C2CC2)n1 -31.5%
CC(=O)OCC(=O)[C@@]1(O)[C@H](C)C[C@H]2[C@@H]3C[C@H](F)C4=CC(=O)C=C[C@]4(C)[C@H]3[C@@H](O)C[C@@]21C -9.07%
Cc1c[nH]c(=O)n(CCCN2CCN(c3ccccc3OCC(F)(F)F)CC2)c1=O -22.5%
CCCCC/C=C\C/C=C\C/C=C\C/C=C\CCCC(=O)O[C@H](COCCCCCCCCCCCCCCCC)COP(=O)([O-])OCC[N+](C)(C)C -13.8%
COc1ccc2c(c1)OC(C)CN(CCNC(=O)c1csc(-c3cccs3)n1)C2 (centres undefined) -8.01%
COCC(=O)N1CCC2(CC1)CN(Cc1nccs1)C2 -20.2%
C[C@]12CC[C@@H]3c4ccc(O)cc4C[C@@H](CCCCCCCCCS(=O)CCCC(F)(F)C(F)(F)F)[C@H]3[C@@H]1CC[C@@H]2O (some centres undefined) -40.3% and -31.8%
COc1ccc2cc1Oc1ccc(cc1)C[C@H]1c3cc(c(OC)cc3CCN1C)Oc1c(OC)c(OC)cc3c1[C@H](C2)N(C)CC3 -2.76% and -13.1% and 0.517%
O=C(c1cccc(F)c1)N1CCC[C@@]2(CCN(C(c3ccccc3)c3ccccc3)C2)C1 -35.4%
CCC(C)[C@H]1COCCS(=O)(=O)N1Cc1ccccc1F (some centres undefined) -24.9%
O=C(C[N+]12CCCc3cccc(c31)CCC2)c1ccc(Cl)c2ccccc12 -14.7%
Cc1c(C)n(CCN(C)C)c2ccc(C(=O)OCCN(C)C)cc12 -14.9%
COc1cc(OC)c2c(c1)OC(c1ccccc1)CC2=O (centres undefined) 3.64%
N#Cc1cccc(-c2ccc3ncnc(NCc4ccccc4)c3c2)c1 -9.77%
CC[C@H]1OC(=O)[C@H](C)C(=O)[C@H](C)[C@@H](O[C@@H]2O[C@H](C)C[C@H](N(C)C)[C@H]2O)[C@](C)(OC)C[C@@H](C)C(=O)[C@H](C)[C@H]2N(CCCCn3cnc(-c4cccnc4)c3)C(=O)O[C@]12C -24.4% and -39%
